Test results as given in PubChem BioAssay AID588855 (National Center for Advancing Translational Sciences (NCATS), 2011).
Hit rate of the full screen: of about 410,000 compounds, about 5,000 (1.2%) were called active. The inconclusive results got no clear call from the source; some entries with a clear call stand among them for comparison. The call rests on the fitted dose curve; in most records, active means well fitted inhibition curve with a large enough effect; inconclusive means small, poorly fitted or top-dose-only effect; inactive means no such curve, though single readings can be large or run the other way. A potency beside an inconclusive call is a rough fit, not a confirmed value.

experiment: qHTS for Inhibitors of TGF-b; conditions: HepG2 CAGA-GFP TGF-b/SMAD3 reporter, GFP fluorescence, 18 h, TGF-beta stimulated, 500 pg/mL final; series mostly up to 46.1 µM; further: nearly all actives have a fitted effect of over 65% in size
How it was run: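 Inhibition of TGF-beta-driven CAGA-GFP reporter expression in HEPG2 cells is measured by cellular GFP fluorescence after 18 h stimulation with 500 pg/mL recombinant TGF-beta in 1% FBS medium at 37 degrees C.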
Potency means the concentration at half of the fitted maximal effect; tags describe the fitted curve by direction and shape.

Row | SMILES | Potency
1 | Cc1ccc(NP(=O)(Oc2ccccc2F)Oc2ccccc2F)cc1C | inconclusive: 35.5 µM [inhibitor, single point]
2 | CC(C)(C)c1cc(C=C(C#N)C#N)cc(C(C)(C)C)c1O | inconclusive: 0.316 µM [inhibitor, full curve, poor fit]
3 | COc1cc(C2c3cc4c(c(O)c3CC3COC(=O)C32)OCO4)cc(OC)c1O (stereo not drawn) | inconclusive: 0.891 µM [inhibitor, full curve, poor fit]
4 | COC(=O)CC1NC2CCCCC2NC1=O (stereo not drawn) | inconclusive: 3.55 µM [inhibitor, single point]
5 | Cc1ccc(Cl)cc1NC(=O)Cn1c(=O)oc2cc(S(=O)(=O)N3CCCCCC3)ccc21 | inconclusive: 35.5 µM [inhibitor, single point]
6 | Nc1ccc(CC(N)c2csc(Nc3ncccn3)n2)cc1 (stereo not drawn) | inactive
7 | C[n+]1ccc(-c2ccncc2)cc1 | inactive
8 | COc1ccc(N2C(=O)NC(=O)/C(=C\c3cn(CC(=O)N4CCOCC4)c4ccccc34)C2=O)c(OC)c1 | inconclusive: 20 µM [inhibitor, single point]
9 | COc1ccc(C2NCc3ccc4c(c3-n3cccc32)OCO4)cc1O (stereo not drawn) | inconclusive: 35.5 µM [inhibitor, single point]
10 | CC(C)c1ccc(C(c2c(O)c3ccccc3oc2=O)c2c(O)c3ccccc3oc2=O)cc1 | inconclusive: 22.4 µM [inhibitor, single point]
11 | Cc1ccc(-n2c(/C=C/c3ccccc3)nc3ccccc3c2=O)cc1C | inactive
12 | Cc1sc2ncnc(N3CCC(C(=O)Nc4ccc(C#N)c(Cl)c4)CC3)c2c1C | inconclusive: 28.2 µM [inhibitor, single point]
13 | C[C@@H]1C[C@@H]([C@H](O)CC2CC(=O)NC(=O)C2)C(=O)[C@@H](C)C1 | active: 1 µM
14 | COc1ccc(-c2nn(CCC#N)cc2C(=O)Nc2ccccc2Br)cc1 | inactive
15 | COC(=O)C1=C(c2ccc(-c3ccccc3)c(F)c2)C[C@@H]2CC[C@H]1N2C(=O)NCCOc1ccc(OC)cc1 | inconclusive: 35.5 µM [inhibitor, single point]
16 | CCc1ccc(NC(=O)c2ccc3oc(=O)n(Cc4ccccc4)c3c2)cc1 | inconclusive: 22.4 µM [inhibitor, single point]
17 | Cc1ccc(S(=O)(=O)N2Cc3cc(-c4ccccc4)ccc3-n3nncc3C2)cc1 | inconclusive: 1.12 µM [inhibitor, full curve, poor fit]
18 | COC(=O)C1=C(c2ccc(Cl)c(C(F)(F)F)c2)C[C@@H]2CC[C@H]1N2C(=O)NCCOc1ccccc1Cl | inconclusive: 22.4 µM [inhibitor, single point]
19 | C[N+]12CCC(CC1)C(=C(c1ccccc1)c1ccccc1)C2 | inconclusive: 0.1 µM [inhibitor, full curve, poor fit]
20 | NC(N)=Nc1ccc2[nH]c3c(c2c1)C[C@@]1(O)[C@H]2Cc4ccc(O)c5c4[C@@]1(CCN2CC1CC1)[C@H]3O5 | active: 14.1 µM
21 | COc1ccc(C)cc1N(CC(=O)N1CCC(C)CC1)S(=O)(=O)c1ccc(C)cc1 | inconclusive: 35.5 µM [inhibitor, single point]

Row | SMILES | Potency
22 | COc1ccc(C2SCC(=O)Nc3c2c(C)nn3C2CCOC(C)(C)C2)cc1 (stereo not drawn) | inactive
23 | C[C@H]1CN([C@@H](C)CO)C(=O)CCCn2nncc2CO[C@H]1CN(C)C(=O)Oc1ccc2ccccc2c1 | inactive
24 | Cc1cccc(-n2c(/C=C/c3cccc4ccccc34)nc3ccccc3c2=O)c1 | inconclusive: 7.94 µM [inhibitor, partial curve, poor fit]
25 | Cc1ccc(-n2c(/C=C/c3cccc(C(F)(F)F)c3)nc3ccccc3c2=O)cc1 | inconclusive: 35.5 µM [inhibitor, single point]
26 | CCOc1ccc(CN2C(=O)c3ccccc3Sc3ccc(C(=O)N4CCC5(CC4)OCCO5)cc32)cc1 | inconclusive: 35.5 µM [inhibitor, single point]
27 | COC(=O)C1=C(c2ccc(-c3ccccc3)c(F)c2)C[C@@H]2CC[C@H]1N2C(=O)NCc1ccco1 | inconclusive: 7.08 µM [inhibitor, partial curve]
28 | CC(C)(O)/C=C/C(=O)[C@](C)(O)C1[C@H](O)C[C@@]2(C)C3CC=C4C(C[C@H](O)[C@@H](O)C4(C)C)[C@]3(C)C(=O)C[C@]12C (stereo partly drawn) | active: 0.708 µM
29 | CCCOc1ccc(C(=O)CCC(=O)NNC(=O)c2ccncc2)cc1 | inconclusive: 3.55 µM [inhibitor, partial curve, poor fit]
30 | CC[C@H]1CN(C)C[C@@]2(C(=O)OC)Cc3c([nH]c4ccccc34)C(=O)C[C@@H]12 | inactive
31 | COc1ccc(CN2CC=C(c3ccc(F)cc3)CC2)cc1Br | inconclusive: 35.5 µM [inhibitor, single point]
32 | C[C@H](CO)N1C[C@H](C)[C@@H](CN(C)C(=O)Nc2ccccc2)Oc2c(NC(=O)Nc3ccccc3)cccc2C1=O | inconclusive: 5.62 µM [inhibitor, single point]
33 | Cc1cc(C)c(C(=O)CN2CCOCC2)c(C)c1 | inconclusive: 25.1 µM [inhibitor, single point]
34 | COC(=O)C1=C(c2ccc(F)cc2OCc2ccccc2)C[C@@H]2CC[C@H]1N2C(=O)NCCCc1ccccc1 | inactive
35 | COc1ccccc1-n1c(-c2ccccc2Br)nc2ccccc2c1=O | inactive
36 | N#Cc1cc2c(nc1SCC(=O)Nc1ccc(Cl)c(C(F)(F)F)c1)C1CCN2CC1 | inconclusive: 0.112 µM [inhibitor, full curve, poor fit]
37 | CCCC(=O)NC1=C(N2CC2)C(=O)C(NC(=O)CCC)=C(N2CC2)C1=O | inactive
38 | S=C(NCCc1ccccc1)N1Cc2cc(Br)ccc2-n2nncc2C1 | inconclusive: 3.55 µM [inhibitor, partial curve, poor fit]
39 | COC(=O)C(C)Oc1cc(C)cc2oc(=O)c3c(c12)CCC3 (stereo not drawn) | inconclusive: 35.5 µM [inhibitor, single point]
40 | C=CC1CN2CCC1CC2[C@@H](OC(=O)c1ccc(OC)cc1)c1ccnc2ccccc12 (stereo partly drawn) | inconclusive: 35.5 µM [inhibitor, single point]
41 | COC(=O)C1=C(c2ccc3ccccc3c2)C[C@@H]2CC[C@H]1N2C(=O)NCc1ccc(F)cc1 | inconclusive: 22.4 µM [inhibitor, single point]
42 | CCOC(=O)C1(c2ccccc2)Oc2ccccc2C(c2ccc(OC)cc2)=C1C(=O)OC (stereo not drawn) | inconclusive: 22.4 µM [inhibitor, single point]

Row | SMILES | Potency
43 | CC(=O)c1cccc(OCC(O)CN2CC=C(c3ccccc3)CC2)c1 (stereo not drawn) | inactive
44 | CN(C(=O)CSc1nc2ccc(NC(=O)COc3ccccc3)cc2s1)c1ccccc1 | inconclusive: 7.08 µM [inhibitor, full curve, poor fit]
45 | C[C@H]1CCC[C@@H](O)CCC/C=C/c2cc(O)cc(O)c2C(=O)O1 | inconclusive: 22.4 µM [inhibitor, single point]
46 | N#CC12CNCC1CN=N2 (stereo not drawn) | inactive
47 | CCCCN(Cc1ccccc1)C1CCN(CCc2ccccc2)CC1 | inconclusive: 15.8 µM [inhibitor, single point]
48 | CCc1ccc(CN2CCN(Cc3cc(Br)ccc3O)CC2)cc1 | inconclusive: 15.8 µM [inhibitor, single point]
49 | CC1CCCN(c2ccc(C(=O)N3CCC4(CC3)OCCO4)cc2[N+](=O)[O-])C1 (stereo not drawn) | inconclusive: 35.5 µM [inhibitor, single point]
50 | COC(=O)C1=C(c2cc3ccccc3o2)C[C@@H]2CC[C@H]1N2C(=O)N1CCCCC1 | inconclusive: 7.94 µM [inhibitor, partial curve, poor fit]
51 | Fc1cccc(-c2ccc3c(c2)CN(c2cccc(Cl)c2)Cc2cnnn2-3)c1 | inconclusive: 22.4 µM [inhibitor, partial curve, poor fit]
52 | Cc1cc(N=Nc2ccccc2C)ccc1N | inconclusive: 20 µM [inhibitor, single point]
53 | CCCCn1c(=O)c(C(=O)NCc2ccccc2Cl)c(O)c2ccccc21 | inactive
54 | CCN1C[C@]2(CO)CC[C@H](OC)[C@@]34C5C[C@H]6[C@H](OC)C5[C@](O)(C[C@H]6OC)[C@@H](C(OC)C23)[C@@H]14 (stereo partly drawn) | inactive
55 | c1ccc(-c2[nH]c(-c3ccccc3)[n+](CC3CO3)c2-c2ccccc2)cc1 (stereo not drawn) | inconclusive: 11.2 µM [inhibitor, partial curve, poor fit]
56 | O=C(CCl)Nc1nccs1 | active: 11.2 µM
57 | Cc1ccc(S(=O)(=O)N2CCC(=O)N(CCOC(=O)Nc3cccc(Cl)c3)CC2)cc1 | inconclusive: 11.2 µM [inhibitor, single point]
58 | CCCCCCC(C)(C)c1ccc([C@@H]2C[C@H](O)CC[C@H]2CCCO)c(O)c1 | active: 12.6 µM
59 | CCOc1ccc(/C=C/C(=O)C(C(N)=O)=C2SCCS2)cc1 | inconclusive: 35.5 µM [inhibitor, single point]
60 | CCOC(C(=O)OCC(O)CN(CC)CC)(c1ccccc1)c1ccccc1 (stereo not drawn) | inconclusive: 3.55 µM [inhibitor, single point]
61 | CC(c1ccc(F)cc1)n1cc(C(=O)NCc2ccc3c(c2)OCO3)nn1 (stereo not drawn) | inconclusive: 1 µM [inhibitor, partial curve, poor fit]
62 | Cc1nc2cc(C(F)(F)F)ccc2n1C1CCN(Cc2nnnn2Cc2ccc3c(c2)OCO3)CC1 | inconclusive: 35.5 µM [inhibitor, single point]
63 | C[C@@H]1CN([C@@H](C)CO)C(=O)CCCn2nncc2CO[C@@H]1CN(C)C(=O)Oc1ccc2ccccc2c1 | inactive
